Measured values as given in the supplement of paper PMC3334620.
Over roughly 33,000 sequences, “E-score (-0.5 to 0.5)” has its median near -0.01; the highest 2% begin near 0.26. The list shows a part of the results.

These sequences were tested against Ste12 (UniProt P13574) (assay: PBM E-score (8-mer binding enrichment) (E-score (-0.5 to 0.5)); higher = stronger / more preferred TF binding; most listed sequences are background and not binding sites). Settings: protein concentration: 200 nM; construct: GST-DNA-binding domain.
Procedure: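 Universal 'all 10-mer' protein binding microarrays (Agilent AMADID 015681) probed with GST-tagged S. cerevisiae TFs (full-length or DBD) made by in vitro transcription/translation (PURExpress), about 100-200 nM. Bound TF was detected with fluorescent anti-GST. Each ungapped 8-mer (which stands for itself and its reverse complement) is scored by the PBM enrichment score (E-score), a modified Wilcoxon-Mann-Whitney statistic from -0.5 to +0.5, computed with the Universal PBM Analysis Suite. Scale: above 0.35 generally sequence-specific binding.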

In order of falling “PBM E-score” value:
1. CAAAATAA  0.33
2. TTTGAAAA  0.309
3. ATTTATTA  0.292
4. AATATCAA  0.283
5. GGAATGAA  0.281
6. AATCAGAA  0.27
7. AAACGACA  0.255
8. ATAATATG  0.248
9. CGATTTTC  0.247
10. CACGAAAA  0.243
11. ATAAAAAT  0.241
12. CAAAACTA  0.235
13. ACTTTATA  0.227
14. TGTGAAAA  0.216
15. GCTTGAAA  0.198
16. AACACCGG  0.197
17. ATACAAGC  0.184
18. GATAGATA  0.182
19. ATTTACAC  0.18
20. CGACGCGC  0.173
21. CCGTTTCG  0.164
22. ATTGGTTG  0.146
23. CGAACCGC  0.144
24. AATTTGAG  0.138
25. AACCTCTT  0.136
26. CCGTTTTC  0.133
27. GCAAATCA  0.126
28. GACTAGTA  0.125
29. TAACACAA  0.124
30. CTGTAATA  0.119
31. AACTCCCA  0.118
32. AACGTTAA  0.116
33. GAACACTC  0.112
34. AATCCTCA  0.104
35. AGTATTGA  0.102
36. AGACAAGA  0.0955
37. ACGATGTG  0.0886
38. ATTAGGAA  0.087
39. ATAAGGTA  0.0828
40. CAGGGTGG  0.08
41. ACAGTTCG  0.079
42. CGAGGCGC  0.0766
43. TATCATAA  0.0742
44. AATTGCGA  0.073
45. ATTCTACC  0.0724
46. ACGCGTCG  0.0699
47. ATCTCCAT  0.0661
48. ATACTAGC  0.0647
49. ATGTTCGA  0.0622
50. AAGGCGGG  0.0588
51. GATCGAAA  0.0588
52. CGCGTGTA  0.0551
53. ATCGAGAG  0.0528
54. GATAGAAC  0.0461
55. TGGACAAA  0.0459
56. GATATCAC  0.0447
57. ACTATTTC  0.0445
58. ACAACGCT  0.0428
59. ATAACGTC  0.041
60. TCTGTACA  0.0387
61. CGAATTGA  0.0366
62. ACAAGCTC  0.0349
63. AATGACGC  0.0343
64. AAGATGGT  0.0337
65. ATCTGAGA  0.0322
66. GACGCGCA  0.0305
67. AAGGAACT  0.0302
68. GATCAGGA  0.0285
69. GGATCAAC  0.0276
70. AAATAGCG  0.0263
71. AACGCTAC  0.0235
72. ACGTAAAG  0.0191
73. TCCTTCGA  0.0182
74. ACACCTTG  0.0158
75. ACCTTGTA  0.0127
76. AAGTACAT  0.0101
77. CGGTAGAC  0.00936
78. AACGTCCT  0.00651
79. TACGGATA  0.00564
80. ACATATAG  0.00266
81. AAGCTGCC  0.00259
82. ATATCGTC  0.00202
83. ACAGAACG  0.00036
84. CCTCACCC  0.00023
85. AGATACGC  -0.00123
86. AGATCTGA  -0.00294
87. TCAGTAGA  -0.0042
88. GACGCACC  -0.00732
89. AACCGGGG  -0.00779
90. CACATATC  -0.00781
91. AGCATAAC  -0.00864
92. TCCTTCAA  -0.0162
93. AGGTCCGG  -0.018
94. ATTGCTGA  -0.0194
95. ATTGACTC  -0.0234
96. AAGAACGC  -0.029
97. CGCACCGA  -0.0312
98. CCGAGAAC  -0.0321
99. AGGGGTAA  -0.0335
100. CGACTGGC  -0.0341
101. CGCCTGCC  -0.0348
102. CAATGTAC  -0.0352
103. TCCATCCA  -0.039
104. GAATGTAC  -0.0391
105. ACCCTACC  -0.0406
106. AGATCTTC  -0.0434
107. ACATGTGA  -0.0437
108. AAGCTCAT  -0.0461
109. GCGCTTCC  -0.0472
110. AGGCCTAA  -0.0544
111. GATGACTA  -0.0558
112. GCTGCCGA  -0.056
113. GCTCGGTA  -0.0567
114. CCGCCTAA  -0.0574
115. GTCAGGGA  -0.0596
116. GATTGCAC  -0.0646
117. GAAGATTC  -0.0646
118. CGTTGCAC  -0.0662
119. TACGATGA  -0.0696
120. CTCCGCTA  -0.0696
121. CGAAGGAC  -0.0697
122. CTCGAGCC  -0.0728
123. CGCTATCA  -0.0756
124. CTCCACCC  -0.0779
125. GTACTCTA  -0.0825
126. GGATCGAA  -0.0832
127. GCTACCGA  -0.0832
128. CCCCTGTC  -0.0877
129. GGCCAGCC  -0.0902
130. CGGCTAAC  -0.0941
131. AGTGAGCA  -0.0953
132. GGACTGAC  -0.0969
133. CCCGGGGA  -0.0979
134. GATTTCCC  -0.0998
135. AGCTACGA  -0.102
136. AAGAGTTC  -0.105
137. CCGGCCAG  -0.107
138. ATCCGGAC  -0.114
139. ACGCTGCA  -0.119
140. GTCGCTCA  -0.123
141. AAGTTCGC  -0.125
142. CCACTGAC  -0.126
143. GATGACCA  -0.127
144. GATCCCTA  -0.128
145. GCCTTAAC  -0.13
146. AGGATCCA  -0.141
147. AGAGCGTA  -0.143
148. AAGTCCGC  -0.146
149. AGTAGGTA  -0.155
150. CATTCTCC  -0.157
151. CTCAGCCC  -0.168
152. ACCCCCCG  -0.17
153. ACGTCCTC  -0.172
154. CTGTTGAC  -0.174
155. CTTGTGCA  -0.184
156. CAACCGTA  -0.184
157. CACTGTCG  -0.186
158. ACAGGTCC  -0.187
159. GTCGGTGA  -0.188
160. CCCCATTA  -0.193
161. CTCTGGGC  -0.203
162. AGCTTGGA  -0.203
163. CCTAGTCC  -0.211
164. CCTCTGCG  -0.216
165. GAAAGTTC  -0.216
166. ACAGGACT  -0.223
167. ACTGCCCC  -0.231
168. AGCGGACT  -0.233
169. CTTTCGCC  -0.244
170. AATTCGAC  -0.246
171. CCTGTAGC  -0.252
172. GCTCTCAC  -0.339
